Source: PubChem BioAssay AID1745853 (National Center for Advancing Translational Sciences (NCATS), 2022)
Several values for one entry are separate records, joined by “and”; a condition that tells them apart may be missing. Equal values may be shown once. Some of the results follow. The main result of the screen is listed elsewhere. These columns were measured beside it and carry no call.

Tests used:
Test in all cases: Primary Screen for Target Class Profiling of Small Molecule Inhibitors of Methyltransferases
[1] = molecular target: Glycine N-methyltransferase (Homo sapiens) (UniProt Q14749); settings: purified enzyme, MTase-Glo SAH luminescence; measured here: GNMT inhibition; at 40 µM; stronger effect = lower value
Method in brief: (§1)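 Each enzyme was reacted with SAM and its substrate, with compounds tested once at 40 uM; SAH formed was read by MTase-Glo luminescence.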

[2] = molecular target: Guanidinoacetate N-methyltransferase (Homo sapiens) (UniProt Q14353); settings: purified enzyme, MTase-Glo SAH luminescence; measured here: GAMT inhibition; at 40 µM; stronger effect = lower value
Method in brief: as §1

[3] = molecular target: Histamine N-methyltransferase (Homo sapiens) (UniProt P50135); settings: purified enzyme, MTase-Glo SAH luminescence; measured here: HNMT inhibition; at 40 µM; stronger effect = lower value
Method in brief: as §1

[4] = molecular target: Nicotinamide N-methyltransferase (Homo sapiens) (UniProt P40261); settings: purified enzyme, MTase-Glo SAH luminescence; measured here: NNMT inhibition; at 40 µM; stronger effect = lower value
Method in brief: as §1

[5] = molecular target: Phenylethanolamine N-methyltransferase (Homo sapiens) (UniProt P11086); settings: purified enzyme, MTase-Glo SAH luminescence; measured here: PNMT inhibition; at 40 µM; stronger effect = lower value
Method in brief: as §1
On the % scale 0 is the no-effect control and ±100 the full control effect.

Structure (SMILES)	activity change, negative = inhibition [1]	activity change, negative = inhibition [2]	activity change, negative = inhibition [3]	activity change, negative = inhibition [4]	activity change, negative = inhibition [5]
C/C(=C\CCC1(C)C2CC3C(C2)C31C)C(=O)O (stereo not given)	-10.5%	-12.6%	-1.99%	-28%	-5.76%
CC(C)n1c(=O)c2ccc(C(=O)NC3CCCCC3)cc2n2c(=O)n(Cc3ccc(Cl)cc3)nc12	2.1%	0%	8.55%	5.93%	6.13%
COc1ccc(C2=NC(c3ccc(Cl)cc3)C(c3ccc(Cl)cc3)N2C(=O)N2CCNC(=O)C2)c(OC(C)C)c1 (stereo not given)	1.28%	16.8%	11%	-37%	10.7%
CCC(C)NC(=O)c1ccc2c(=O)n(C)c3nn(CC(=O)c4ccc(C)cc4)c(=O)n3c2c1 (stereo not given)	4.13%	1.12%	5.91%	5.12%	4.77%
Cc1ccc(C(=O)Cn2nc3n(Cc4ccc(F)cc4)c(=O)c4ccccc4n3c2=O)c(C)c1	5.01%	0%	8.63%	5.78%	5.33%
CCc1ccccc1NC(=O)c1ncn2c1C(=O)N(C1CC1)C(C)(C(=O)NC1CCCC1)C2 (stereo not given)	-7.75%	4.81%	-4.04%	-8.37%	-6.84%
COc1ccc2cc3n(c2c1)CC(C)(C(=O)NC1CCCCC1)N(c1ccccc1OC)C3=O (stereo not given)	4.16%	2.74%	6.4%	-3.95%	0.142%
CCNC(=O)N1CCC(CCOC)(NS(=O)(=O)c2cccc3cccnc23)CC1	0.121%	0.726%	1.71%	-2.86%	-1.46%
CN1C(=O)c2cc(C(=O)NCc3ccccc3)nn2CC1(C)C(=O)NC1CCCCCC1 (stereo not given)	-1.07%	0%	3.52%	-3.36%	0.396%
CCN(CC)CCNC(=O)c1c(C)[nH]c(/C=C2\C(=O)Nc3ccc(F)cc32)c1C	-23.3%	-7.77%	-33.6%	-16.7%	-19.3%
CCCN1C(=O)c2cc3c(OC)ccc(OC)c3n2CC1(C)C(=O)NC1CCCC1 (stereo not given)	-21.8%	-1.03%	-3.2%	-5.38%	-21.9%
CC(=O)Nc1ccc(Nc2nc3c(S(=O)(=O)c4ccc(Br)cc4)nnn3c3ccccc23)cc1	-12.3%	0%	4.17%	-1.29%	-5.25%
COc1ccc(/C=C/C(=O)Nc2ccccc2C(=O)O)cc1OC	-18.3% and -27.8%	-2.15% and -2.83%	-2.23% and -10.8%	-15.9% and -14.4%	-3.79% and -4.18%
CCCN1C(=O)c2c(C(=O)NCc3ccccc3C)ncn2CC1(C)C(=O)NCCC(C)C (stereo not given)	1.61%	2.08%	2.47%	-0.523%	6.09%
CCOc1cc2ncc(C#N)c(Nc3ccc(F)c(Cl)c3)c2cc1NC(=O)/C=C/CN(C)C	-95.8%	-95.7%	-94.5%	-98.5%	-96.5%
CC1(C(=O)NC2CCCCCC2)Cn2nc(C3CC3)cc2C(=O)N1Cc1cccc(Br)c1 (stereo not given)	-6.5%	3.24%	-0.886%	-12.8%	-2.22%
COc1ccc(OC)c(S(=O)(=O)N2CCC(n3c(C)cnc3C3CC3)CC2)c1	0.301%	0%	-5.71%	2.24%	3.88%
CCCc1c(-c2ccc(O)cc2)nn(-c2ccc(O)cc2)c1-c1ccc(O)cc1	-22.1%	-6.7%	-7.73%	-51%	-13.8%
CCCC1c2cccn2CCN1C(=O)Nc1cccc(Cl)c1C (stereo not given)	-3.29%	1.68%	-35.1%	-0.853%	4.46%
CCc1ccc(N2C(=O)c3cc4ccccc4n3CC2(C)C(=O)NCCC(C)C)cc1 (stereo not given)	4.78%	0.164%	10.4%	2.3%	0.914%
O=C(N[C@H]1CO[C@H]2[C@@H]1OC[C@@H]2Nc1nccc(C2CCCC2)n1)c1ccco1	-13.5%	-0.939%	-2.65%	-17.8%	-16%
CC1(C(=O)NC2CCCCCC2)Cn2c(cc3sccc32)C(=O)N1c1cccc(F)c1 (stereo not given)	4.26%	0.46%	4.77%	8.52%	0.615%
CC1(C(=O)NC2CCCC2)Cn2c(c(-n3cccc3)c3ccccc32)C(=O)N1Cc1cccnc1 (stereo not given)	7.01%	0%	4.88%	0.37%	4.48%
C=C[C@](C)(CC/C=C(\C)C(=O)O)O[C@@H]1OC[C@H](O)[C@H](O)[C@H]1O	0.463%	0.339%	7.41%	-12.1%	-0.449%
CC(C)(C)Nc1nc(Nc2ccc(C(N)=O)cc2)cc(N)c1C#N	-27.4%	-2.49%	-24%	-21.6%	-11.3%
